In PMC4336329 (PLoS ONE, 2015):
Hit rate of the full screen: of about 310,000 compounds, about 14,000 (4.5%) showed an effect of 50% or more. The effect is printed as a negative number. Some of the results follow.

biological target: human ether-à-go-go-related gene (hERG) potassium channel (human, UniProt Q12809); assay: primary screen, population patch clamp on CHO cells stably expressing hERG
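Note: peak tail current of the secondary pulse compared with the same well before compound.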

human ether-à-go-go-related gene (hERG) potassium channel, sequence (Q12809 whole entry, looked up): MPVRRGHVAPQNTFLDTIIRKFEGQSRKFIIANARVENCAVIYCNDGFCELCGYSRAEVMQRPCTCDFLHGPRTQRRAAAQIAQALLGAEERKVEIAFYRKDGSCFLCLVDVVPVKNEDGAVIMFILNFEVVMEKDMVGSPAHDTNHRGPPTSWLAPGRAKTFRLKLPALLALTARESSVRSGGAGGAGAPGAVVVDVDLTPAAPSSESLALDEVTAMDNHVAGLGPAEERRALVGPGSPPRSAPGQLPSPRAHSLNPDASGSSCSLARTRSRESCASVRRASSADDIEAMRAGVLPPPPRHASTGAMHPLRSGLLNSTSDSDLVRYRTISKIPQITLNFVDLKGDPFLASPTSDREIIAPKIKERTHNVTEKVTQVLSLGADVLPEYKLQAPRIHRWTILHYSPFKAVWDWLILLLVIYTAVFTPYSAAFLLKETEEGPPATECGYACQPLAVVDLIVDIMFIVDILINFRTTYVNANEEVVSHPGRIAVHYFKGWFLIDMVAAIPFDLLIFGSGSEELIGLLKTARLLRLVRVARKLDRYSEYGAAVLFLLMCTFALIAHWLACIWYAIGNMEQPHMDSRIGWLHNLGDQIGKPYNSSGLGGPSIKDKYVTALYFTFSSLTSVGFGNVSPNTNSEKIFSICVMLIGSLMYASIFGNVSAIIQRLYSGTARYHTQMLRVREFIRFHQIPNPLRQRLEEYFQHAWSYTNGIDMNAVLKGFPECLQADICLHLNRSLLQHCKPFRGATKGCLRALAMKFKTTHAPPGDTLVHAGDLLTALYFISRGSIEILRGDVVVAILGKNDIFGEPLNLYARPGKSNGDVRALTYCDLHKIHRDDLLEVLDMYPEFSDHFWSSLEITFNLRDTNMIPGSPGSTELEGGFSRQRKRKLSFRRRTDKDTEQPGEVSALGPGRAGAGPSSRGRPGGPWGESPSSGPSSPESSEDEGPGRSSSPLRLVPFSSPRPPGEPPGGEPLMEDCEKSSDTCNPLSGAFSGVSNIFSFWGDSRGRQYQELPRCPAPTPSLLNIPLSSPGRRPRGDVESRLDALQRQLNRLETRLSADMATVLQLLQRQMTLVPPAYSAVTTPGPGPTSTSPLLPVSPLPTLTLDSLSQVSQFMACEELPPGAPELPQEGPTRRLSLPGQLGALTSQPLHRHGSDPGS

SMILES	hERG current change (%, negative = inhibition) at 10uM [%]
COc1ccc(C)cc1N(CC(=O)N1CCCCCC1)S(C)(=O)=O	12.2
CC1=NN(C(=O)c2c(Br)cnn2C)C(O)(C(F)(F)F)C1 (stereo not drawn)	-24.6
COc1ccc(C2c3c(oc4ccccc4c3=O)C(=O)N2CCCN2CCOCC2)cc1 (stereo not drawn)	-7.15
CCOc1ccc(OCC(O)CN2CCc3ccccc3C2)cc1.Cl (stereo not drawn)	-66.3
CN(C)S(=O)(=O)c1cccc(NC(=O)C2Cc3ccccc3CN2C(=O)c2ccccc2)c1 (stereo not drawn)	4.2
O=C(c1cc(COc2ccc3ncccc3c2)on1)N1CCC[C@H]1CO	4.88
COc1ccccc1Nc1nc(NCc2ccco2)nc(N)c1[N+](=O)[O-]	14.9
CC1CCCCC1NC(=S)Nc1ccc(SC(F)F)cc1 (stereo not drawn)	-4.24
COc1ccc2[nH]cc(CCNS(=O)(=O)c3ccc(F)cc3)c2c1	4.05
Cc1sc2nc(COC(=O)C(NC(=O)c3ccc(Cl)cc3Cl)C(C)C)[nH]c(=O)c2c1C (stereo not drawn)	-8.15
O=C(NN=C1C2CC3CC(C2)CC1C3)c1cc(Cl)ccc1O	-9.2
COc1ccc(CCNC(=O)C2CCCN(S(=O)(=O)c3ccc(F)cc3)C2)cc1 (stereo not drawn)	-0.344
O=C(CCC1CCCN(C(=O)CC2=CCCCC2)C1)N1CCN(c2ccccn2)CC1 (stereo not drawn)	5.98
COc1ccc(N2C(=O)C3CC(C)=C(C)CC3C2=O)c(OC)c1 (stereo not drawn)	10.9
CCOC(=O)C1CCCN(C(=O)c2ccc(NC(=O)CC3SC(N4CCCC4)=NC3=O)cc2)C1 (stereo not drawn)	12.9
O=C(CCN1C(=O)/C(=C/c2ccc(F)cc2)SC1=S)Nc1cccnc1	3.56
COc1ccc(-n2c(Cc3cccn3C)nnc2SCC(=O)Nc2ccc(C(C)=O)cc2)cc1	-4.7
Cc1cc2c(cc1C)C(c1ccccc1F)CC(=O)N2 (stereo not drawn)	11.4
O=C(/C=C/c1cccs1)Nc1ccc([N+](=O)[O-])cc1	1.54
COc1ccc(Br)cc1C(=O)NC(=S)Nc1ccc(Cl)c(C(=O)O)c1	34
COCCNC(=O)c1ccccc1NC(=O)c1ccccc1SC	1.11
CCOC(=O)N1CCN(C(=O)CCSCCc2ccncc2)CC1	-14.3

SMILES	hERG current change (%, negative = inhibition) at 10uM [%]
Cc1ccc(C)c2nc(N3CCCC3)c(C#N)cc12	7.81
CC1(C)CC(=O)C2=C(C1)N(Cc1ccc(F)cc1)C(=O)C2(NC(=O)c1cccnc1)C(F)(F)F (stereo not drawn)	-5.55
Cc1ccc(S(=O)(=O)CC(=O)Nc2ccccn2)cc1	9.19
Cc1cccc(N(Cc2cc(=O)[nH]c3ccccc23)C(=O)C(C)C)c1	-6.76
Nc1ccc(C(=O)O)cc1S(=O)(=O)O	4.1
Oc1c(Br)cc(Br)cc1C=Nc1ccc2c(c1)OCCO2	14.9
Cc1nn(C)cc1CNC(=O)c1cnn2c(C(F)F)cc(C3CC3)nc12	-21.3
CC(C)NOC(=O)c1ccc(Cl)cc1	-5.23
Cn1cc(S(=O)(=O)CC(=O)N2CCCc3ccccc32)c2ccccc21	-15.2
COCc1cc(N2CCCC2)nc(-c2ccccc2)n1	1.91
CCOc1ccccc1C1NC(=O)NC(C)=C1C(=O)OCc1ccco1 (stereo not drawn)	-8.95
O=C(Nc1ccccc1)O/N=C/c1ccccc1Cl	11.2
O=C1/C(=C/c2ccccc2)NC(=S)N1C(c1ccccc1)c1ccccc1	9.94
Cn1cnnc1Sc1cc(N2CCNCC2)ccc1[N+](=O)[O-]	7.66
Cc1nc(SCc2cccnc2)[nH]c(=O)c1C	20.9
COc1ccc(Oc2ccc(NC(=O)c3ccccc3C)cc2)cc1	1.33
COC(=O)C1C(=O)N2CCCSC2=C(C#N)C1c1cccs1 (stereo not drawn)	1.49
CC1(C)CC(=O)C2=C(C1)N(CCN1CCOCC1)C1=C(C(=O)CC(C)(C)C1)C2c1cccc(Cl)c1	-54
O=C(Nc1ccnn1C1CCN(C2CCCC2)CC1)c1ccccc1	1.61
COC(=O)c1ccc(-c2nc(CN3CCN(Cc4cccc(C)c4)CC3)c(C)o2)cc1	-25.3
CCC(C)(C)C1CCc2[nH]nc(C(=O)NC3CCCC3)c2C1 (stereo not drawn)	2.45
CC(=O)c1c(C)[nH]c(C(=O)Nc2cc(F)ccc2C)c1C	18.1

SMILES	hERG current change (%, negative = inhibition) at 10uM [%]
O=C(Nc1ccccc1OC(F)F)c1ccc(S(=O)(=O)N2CCCC2)cc1	-3.72
Cc1nc2ccccc2c(=O)n1NS(C)(=O)=O	14.8
Cc1ccc(C(=O)C(NC(=O)c2ccco2)N2CCOCC2)cc1 (stereo not drawn)	1.86
O=S(=O)(NC1=NCCC1)c1cccc(NS(=O)(=O)c2ccc(OC(F)(F)F)cc2)c1	1.71
CCc1ccc(NC(=O)CSc2nc(=O)n(CCN(C)C)c3c2CCCC3)cc1	-24.2
O=C(NCC(c1cccs1)N1CCOCC1)c1ccccc1NS(=O)(=O)c1ccc(Br)cc1 (stereo not drawn)	-38.4
Nc1nnc(-c2ccccc2)c(-c2ccccc2)n1	-10.7
O=C(N/N=C/c1ccc2c(c1)OCO2)C(=O)Nc1ccc2ccccc2c1	4.93
COc1ccc(CNC(=O)Nc2ccc(C)c(C)c2)cc1	12.1
COc1cc(Cl)c(C)cc1NC(=O)c1cc(S(=O)(=O)N(C)C)ccc1N1CCCC1	-51.8
CCOc1cc(CNCc2ccncc2)cc(Cl)c1OC.Cl	24.6
Clc1ccc(-c2cnn3c(-c4ccncc4)ccnc23)cc1	5.43
CCC(C)c1c(O)nc(SCC(=O)Nc2ccccc2)[nH]c1=O (stereo not drawn)	13.7
CCN1Cc2c(/C=C/c3ccccc3)nc3ccc(OC)cc3c2N(c2cccc(Cl)c2)C1	-12.5
CCc1nc2c(c(=O)[nH]1)C1(CCCC1)Cc1ccccc1-2	10
O=C(O)CCC(=O)OCc1c(-c2ccccc2)ncc2ccccc12	9.09
O=C(CN1CCC(O)(c2cccc(F)c2)CC1)NCCc1c[nH]c2ccccc12	-27.6
CCOc1ccc(CCNC(=O)COC(=O)c2cccnc2SC)cc1OCC	-11.7
CN(CC(=O)Nc1ccc(N2CCOCC2)cc1)C(=O)CCCOc1ccc(Cl)cc1Cl	-28.2
CC(=O)c1sc(NC(=O)c2cccnc2Cl)nc1C	-17.9
COc1ccc(C(=O)COC(=O)CCCn2c(=O)oc3ccccc32)cc1	-43.6
O=C(CCN1CCCCO1)N1CCCC(Nc2ccc(F)c(F)c2)C1 (stereo not drawn)	-0.135

SMILES	hERG current change (%, negative = inhibition) at 10uM [%]
CCOC(=O)C1CCCCN1C(=O)c1oc2c(Cl)cc(C)cc2c1C (stereo not drawn)	19.8
O=C(Nc1nccs1)c1ccc(COc2ccc(F)cc2)o1	8.63
Cc1cc(Br)ccc1NC(=O)CNC(=O)Cc1ccc(S(=O)(=O)N2CCOCC2)s1	-33.8
CCC(=NCCCN(C)C)c1c(O)n(-c2ccc(OC)cc2)c(=O)[nH]c1=O	1.59
N#Cc1cnc(SCC(=O)c2ccccc2)nc1N	-8
CC(C)NC[C@H](O)COc1ccc(CC(N)=O)cc1	12.8
COc1ccc(-c2nc(N)ncc2-c2ccc(OC)c(OC)c2)c(O)c1	-20
O=C(CS(=O)(=O)c1cn(CC(=O)N2CCOCC2)c2ccccc12)NCc1ccccc1	7.51
COc1ccc(-n2c(=S)[nH]c3cc(C(=O)NCCCN4CCOCC4)ccc3c2=O)c(OC)c1.Cl	11.7
COC(=O)C1CCN(C2=C(NS(=O)(=O)c3ccc(Cl)cc3)C(=O)c3ccccc3C2=O)CC1	-25.1
CCc1cccc(CC)c1NC(=O)COC(=O)c1ccc(F)c(S(=O)(=O)N(CC)CC)c1	-17
Cn1c(=O)c2ccccc2n(Cc2cccc(F)c2)c1=O	-1.34
CCn1ncc(CN2CCCC(C(=O)c3cccc(OC(C)C)c3)C2)c1C (stereo not drawn)	-19.8
COc1ccc([C@H]2/C=C\CN(S(C)(=O)=O)[C@@H](C)C(=O)N2Cc2ccc(F)cc2)cc1	-13
Cc1ccccc1NCCC(=O)Nc1ccc(F)cc1	-21.4
CCCNC(=O)C1CCN(S(=O)(=O)c2ccc3[nH]c(=O)ccc3c2)CC1	8.03
O=S(=O)(c1ccc2c(c1)OCCCO2)N1CCNCC1	5.64
Cc1cccc(N2C(=O)CC(N3CCC(c4nc5ccccc5[nH]4)CC3)C2=O)c1 (stereo not drawn)	-33.5
CN(C)c1ccc(/C=C2\SC(=O)N(CC(O)Cn3c4ccccc4c4ccccc43)C2=O)cc1 (stereo not drawn)	1.54
COc1ccc(Cc2nnc(NC(=O)c3c(-c4ccccc4)noc3C)s2)cc1	8.07
O=c1[nH]c(=O)n(Cc2ccco2)c2c1C(C(F)(F)F)(C(F)(F)F)N=C(C1CCCCC1)N2	7.33
